In all, about 310,000 compounds went through this assay and about 2,200 (0.71%) showed an effect of 50% or more. Effects have a minus sign here. The list shows a part of the results.
Molecular target: human ether-à-go-go-related gene (hERG) potassium channel (human, UniProt Q12809)
Assay: primary screen, population patch clamp on CHO cells stably expressing hERG

Chain of human ether-à-go-go-related gene (hERG) potassium channel (Q12809 whole entry, looked up): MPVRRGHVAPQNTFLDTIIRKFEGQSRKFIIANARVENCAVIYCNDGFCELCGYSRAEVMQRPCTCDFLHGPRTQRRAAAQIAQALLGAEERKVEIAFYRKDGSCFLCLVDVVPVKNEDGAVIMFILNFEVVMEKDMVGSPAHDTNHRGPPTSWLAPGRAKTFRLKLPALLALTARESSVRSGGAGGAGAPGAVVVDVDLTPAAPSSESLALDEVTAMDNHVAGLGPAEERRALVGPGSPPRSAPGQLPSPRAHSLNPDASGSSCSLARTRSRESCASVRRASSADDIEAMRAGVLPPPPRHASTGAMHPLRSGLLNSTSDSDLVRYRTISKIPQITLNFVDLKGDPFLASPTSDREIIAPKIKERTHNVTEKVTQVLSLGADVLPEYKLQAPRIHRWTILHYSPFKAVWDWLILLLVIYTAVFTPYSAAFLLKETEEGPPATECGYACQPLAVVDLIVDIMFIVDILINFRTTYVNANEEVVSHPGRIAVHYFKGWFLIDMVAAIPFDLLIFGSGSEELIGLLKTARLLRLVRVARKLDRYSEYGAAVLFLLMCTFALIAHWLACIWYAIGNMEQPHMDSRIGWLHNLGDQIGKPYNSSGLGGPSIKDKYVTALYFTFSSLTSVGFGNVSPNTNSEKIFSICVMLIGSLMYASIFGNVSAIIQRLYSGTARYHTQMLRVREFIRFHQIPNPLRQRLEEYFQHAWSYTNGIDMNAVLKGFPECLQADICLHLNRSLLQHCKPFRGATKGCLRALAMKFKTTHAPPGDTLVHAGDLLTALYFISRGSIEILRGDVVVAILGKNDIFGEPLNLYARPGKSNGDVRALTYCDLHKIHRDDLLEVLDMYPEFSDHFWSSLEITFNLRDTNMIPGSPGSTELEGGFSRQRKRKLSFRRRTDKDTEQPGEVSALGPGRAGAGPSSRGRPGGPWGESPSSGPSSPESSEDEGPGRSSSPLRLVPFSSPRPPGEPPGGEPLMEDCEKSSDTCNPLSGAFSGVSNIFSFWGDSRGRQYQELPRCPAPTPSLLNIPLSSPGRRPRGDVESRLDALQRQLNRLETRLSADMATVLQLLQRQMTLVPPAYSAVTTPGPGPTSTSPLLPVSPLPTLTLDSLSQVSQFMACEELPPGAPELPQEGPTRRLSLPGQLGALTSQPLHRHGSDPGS

Structure (SMILES)	hERG current change (%, negative = inhibition) at 1uM
O=C(NCc1cccc(CNC(=O)c2ccco2)c1)c1ccco1	26.1%
CCN(CC)C(=O)Cn1c(=O)n(CCCCCC(=O)Nc2ccccc2)c(=O)c2sccc21	-7.94%
CCN(C(=O)CSc1nnc(Cc2ccccc2F)n1N)C1CCS(=O)(=O)C1 (stereo not shown)	9.21%
CCCc1c(NC(=O)Nc2ccc(F)cc2)cnn1-c1ccc(Cl)cc1	9.29%
COc1ccccc1NC(=O)NC(=O)N(C(C)C)S(C)(=O)=O	15.8%
Cc1cccc(NC(=O)CCC(=O)N/N=C/c2cccnc2)c1	4.86%
COc1ccc(C(=O)Nc2cccc(NC(C)=O)c2)cc1OC	14.3%
C/C=C\C=C/C(=O)Nc1cccc(C2=NOC3(C2)C[C@@H](C(N)=O)N(C(=O)CCCCC)C3)c1 (stereo partly shown)	0.577%
CC(C)(C)c1ccc(-c2noc(CCC(=O)N3CCOCC3)n2)cc1	13.1%
CCC(CNC(=O)c1c(C)nn(-c2ccccc2)c1Cl)c1ccccc1 (stereo not shown)	13.3%
CN(C)/C=C1/Oc2c(ccc3ccccc23)C1=O	10.4%
O=C(/C=C/c1ccc(-c2ccccc2)cc1)NCc1cccnc1	4.19%
CCSC(=S)c1c(C)[nH]n(-c2ccccc2)c1=O	11.7%
CCO[C@@H]1OC(C(=O)N2CCCCCCC2)=C[C@H](c2ccc(C(F)(F)F)cc2)[C@H]1CCCO	0.366%
CN1C(=O)c2cccc3c(Br)ccc(c23)C1=O	5.79%
COC(=O)c1ccc(NC(=S)N(Cc2cccnc2)Cc2ccco2)cc1	-6.09%
CC1(OC(=O)c2cnc3ccccc3n2)C(=O)C=C2C=C(C3CC3)OC=C2C1=O (stereo not shown)	9.15%
COc1cccc(C(=O)NNC(=O)CCC(=O)O)c1	9.94%
O=C(CSc1nncn1-c1ccccc1)Nc1ccc(N2CCOCC2)cc1	12.2%
O=C1CC(N2CC=C(c3ccccc3)CC2)C(=O)N1c1ccc(F)cc1 (stereo not shown)	-1.78%
O=C(O)c1ccc(-n2nnnc2SCc2ccccc2)cc1	7.44%
Cc1onc(-c2c(F)cccc2Cl)c1C(=O)OCc1nnc(-c2ccccc2)o1	1.85%

Structure (SMILES)	hERG current change (%, negative = inhibition) at 1uM
COc1ccc(/C=C/C(=O)NC(=S)Nc2ccc(S(=O)(=O)N=C(N)N)cc2)cc1OC	-18.3%
Cc1cc(O)c(C(=O)/C=C/c2ccc(C(C)C)cc2)c(=O)o1	12.6%
Cc1cc(Cl)ccc1NC(=O)C(=O)N/N=C/c1ccc2c(c1)OCO2	15%
O=C(c1cc(COc2ccc(F)c(F)c2)on1)N1CCN(C2CCCCC2)C(=O)C1	4.46%
Cc1occc1-c1nnc(SCC(=O)NCC2CCCO2)n1C (stereo not shown)	3.59%
COc1ccc(N/C=C(/C(C)=O)c2ccccc2)cc1	-9.25%
Cc1c(NC(=O)NCc2ccccc2)c(=O)n(-c2ccccc2)n1C	1.89%
Cc1cc(C)c2sc(N(CCN(C)C)C(=O)c3c(F)cccc3F)nc2c1.Cl	13.1%
CCOC(=O)c1ccc(NC(=O)CN(C)S(=O)(=O)c2ccc(OC)cc2)cc1	5.86%
Nc1ncnc2c1ncn2Cc1ccccc1	7.35%
CC(=O)Nc1ccc(-n2c(=O)c3ccccc3c3ccccc3c2=O)cc1	9.46%
COc1ccccc1N1CCN(Cc2cc3c(cc2O)OCO3)CC1	1.15%
Fc1ccc(NC(=S)Nc2ccc3nccnc3c2)cc1	9.67%
Cc1ccc(-c2noc(CN(C(=O)C34CC5CC(CC(C5)C3)C4)C(C)C)n2)cc1	-1.3%
O=C1Nc2ccc(Cl)cc2C(C#CC2CC2)(C(F)(F)F)O1 (stereo not shown)	12.9%
CCOc1ccc(NC(=O)Nc2cc(OCC(F)(F)F)cc(OCC(F)(F)F)c2)cc1	19.6%
CCCC(O)(CCC)C(=O)NNc1ccc(C)cc1	13.9%
CC(N)C(=O)OC(C)(C)Cc1ccc(Cl)cc1.Cl (stereo not shown)	13.2%
O=C(NC1CCCCCC1)c1cc(=O)[nH]c2ccc(S(=O)(=O)N3CCOCC3)cc12	1.03%
CCn1c2c(c3ccc(OC)cc31)CCCC2=O	12.1%
O=C(NCCCO)C(=O)NCC(c1ccc2c(c1)OCO2)N1CCN(c2ccc(F)cc2)CC1 (stereo not shown)	-3.74%
COc1ccccc1/C=C1\SC(=S)N(CCC(=O)NCCCN2CCOCC2)C1=O	4.66%

Structure (SMILES)	hERG current change (%, negative = inhibition) at 1uM
CC(C(N)=O)N1CC(c2ccccc2)CC1=O (stereo not shown)	7.71%
CCN(CC(=O)Nc1ccc(NC(C)=O)cc1)C(=O)C1CC(=O)N(Cc2ccc(C)cc2)C1 (stereo not shown)	11.3%
O=C1CSC(c2ccccn2)N1c1ccc(C(F)(F)F)cc1 (stereo not shown)	-1.13%
Cc1cccc(NC(=O)COC(=O)CCc2c[nH]c3ccccc23)c1	6.93%
CCN(C(=N)N=C(N)N)c1ccccc1	9.71%
Cc1ccc(NC(=O)C2C3C=CC(O3)C2C(=O)O)cc1C (stereo not shown)	15.3%
Cl.c1csc(CNCCN2CCOCC2)c1	7.92%
COc1cc(/C=C2/C(=O)ON=C2C)ccc1OCc1cccc(F)c1	7.62%
Cc1ccc(C)n1-n1c(C)nc2scc(-c3ccccc3)c2c1=O	-5.82%
CCC(C)n1c(SCC(=O)/C(C#N)=C(\C)N)nc2ccccc2c1=O (stereo not shown)	5.48%
O=C(N/N=C/c1ccco1)c1cc(C2CC2)nc2ccccc12	11.2%
COc1ccccc1-n1cc(-c2ccc(Br)cc2)[nH]c1=S	12.5%
O=C1CN(c2ccc(Br)cc2)C(=O)N1CC(=O)N1CCCc2ccccc21	4.12%
Cc1nc(C)c(NC(=O)N2CCc3ccccc32)cc1NC(=O)N1CCc2ccccc21	7.68%
COCC(C)n1c(C)cc(C(=O)CSc2nnc(N)s2)c1C (stereo not shown)	4.27%
Cc1cccc(NC(=O)CSCC(=O)Nc2cc(S(=O)(=O)N3CCOCC3)ccc2OC(C)C)c1	-32.8%
COc1cc(OC)cc(C(=O)Nc2cccc3c2CCCC3)c1	15.1%
C/C(CC(=O)Nc1ccc(C)c(Cl)c1)=N\NC(=O)Cc1cccs1	3.38%
Cc1ccc(OCCC(=O)Nc2ccc(C)c(S(=O)(=O)N3CCOCC3)c2)cc1	10%
COCCCN1C(=O)C(=O)/C(=C(/O)c2ccccc2)C1c1ccc(N(C)C)cc1 (stereo not shown)	9.71%
CS(=O)(=O)Nc1ccccc1C(=O)NCc1ccco1	1.75%
O=C(Oc1ccc(=O)n(-c2ccccc2)n1)c1ccc(F)cc1	7.23%

Structure (SMILES)	hERG current change (%, negative = inhibition) at 1uM
CC(=O)N1N=C(c2ccccc2)OC1(C)CC(=O)Nc1ccccc1 (stereo not shown)	12.4%
COc1ccc(OCC(=O)N/N=C(\C)CC(=O)Nc2cccc([N+](=O)[O-])c2)cc1	-9.82%
COc1ccccc1S(=O)(=O)Cc1ccc(C(=O)N2CCOCC2)o1	5.84%
Cc1cc(N(C)C)ccc1[N+](=O)[O-]	3.19%
CCOC(=O)c1ccc(NC(=O)CSc2nc(NC(=O)c3ccccc3)c3c(C)c(C)oc3n2)cc1	19.6%
COc1ccccc1N1CCN(Cc2nc3ccccc3c(=O)n2CC(C)=O)CC1	10.1%
O=S1(=O)CCN(Cc2cccc(Cl)c2)CC1	-0.132%
CC1COC(=O)C(NNc2ccc(Cl)c(Cl)c2)=N1 (stereo not shown)	10.8%
CC(=O)Nc1ccc(Sc2ncnc3scc(-c4ccccc4)c23)cc1	0.454%
Cn1c(=O)[nH]c(=O)c2c1nc(CN1CCOCC1)n2CCCO	-3.71%
Cc1ccc2c(c1)cc(CN(Cc1ccc3c(c1)OCO3)C(=O)c1cnccn1)c1nnnn12	-2.8%
COc1cccc(NC(=O)Nc2nnc(N3CCCCC3C)s2)c1 (stereo not shown)	12.6%
CC(C)OC(=O)C1C2c3ccccc3C(c3ccccc32)C1C(=O)O (stereo not shown)	4.3%
CCOC(=O)N1CCN(c2c(NC3CCN(Cc4ccccc4)CC3)c(=O)c2=O)CC1	14.4%
Cc1ccn2c(Nc3ccccc3C)c(-c3cccnc3)nc2c1	-7.01%
Cc1ccc2c(c1)NC(=O)[C@@]1(C)[C@@H](c3ccccc3)[C@H]3COc4ccccc4[C@@H]3N1C2=O	18.1%
Cc1ccnc(NS(=O)(=O)c2ccc(NC(=O)C34CC5CC(CC(C5)C3)C4)cc2)n1	11.2%
CC(C)CN(C(=O)COc1ccc2ccc(=O)oc2c1)C1CCS(=O)(=O)C1 (stereo not shown)	22%
C[C@@H]1CCC2[C@](C)(CO)[C@@H](O)CC[C@]2(C)[C@@]12C[C@](CO)(CC(=O)[O-])CO2.O (stereo partly shown)	13.8%
O=C1C2CCCN2C(c2cccnc2)N1c1ccc(Cl)cc1 (stereo not shown)	5.62%
COc1ccc(-c2nc(C(=O)NCCCN3CCOCC3)cc3c2[nH]c2ccccc23)cc1OC	-16.2%
CC(=O)N1CCc2cc(S(=O)(=O)CCC(=O)N3CCN(C(=O)c4ccco4)CC3)ccc21	6.78%

Source: article PMC4336329 (PLoS ONE, 2015)
